Measurements from PMC4336329 (PLoS ONE, 2015).
Out of some 310,000 compounds screened, about 14,000 (4.5%) showed an effect of 50% or more. The effect is printed as a negative number. Some of the results follow.

Biological target: human ether-à-go-go-related gene (hERG) potassium channel (human, UniProt Q12809)
Test: primary screen, population patch clamp on CHO cells stably expressing hERG
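Note: peak tail current of the secondary pulse compared with the same well before compound.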

human ether-à-go-go-related gene (hERG) potassium channel, sequence (Q12809 whole entry, looked up): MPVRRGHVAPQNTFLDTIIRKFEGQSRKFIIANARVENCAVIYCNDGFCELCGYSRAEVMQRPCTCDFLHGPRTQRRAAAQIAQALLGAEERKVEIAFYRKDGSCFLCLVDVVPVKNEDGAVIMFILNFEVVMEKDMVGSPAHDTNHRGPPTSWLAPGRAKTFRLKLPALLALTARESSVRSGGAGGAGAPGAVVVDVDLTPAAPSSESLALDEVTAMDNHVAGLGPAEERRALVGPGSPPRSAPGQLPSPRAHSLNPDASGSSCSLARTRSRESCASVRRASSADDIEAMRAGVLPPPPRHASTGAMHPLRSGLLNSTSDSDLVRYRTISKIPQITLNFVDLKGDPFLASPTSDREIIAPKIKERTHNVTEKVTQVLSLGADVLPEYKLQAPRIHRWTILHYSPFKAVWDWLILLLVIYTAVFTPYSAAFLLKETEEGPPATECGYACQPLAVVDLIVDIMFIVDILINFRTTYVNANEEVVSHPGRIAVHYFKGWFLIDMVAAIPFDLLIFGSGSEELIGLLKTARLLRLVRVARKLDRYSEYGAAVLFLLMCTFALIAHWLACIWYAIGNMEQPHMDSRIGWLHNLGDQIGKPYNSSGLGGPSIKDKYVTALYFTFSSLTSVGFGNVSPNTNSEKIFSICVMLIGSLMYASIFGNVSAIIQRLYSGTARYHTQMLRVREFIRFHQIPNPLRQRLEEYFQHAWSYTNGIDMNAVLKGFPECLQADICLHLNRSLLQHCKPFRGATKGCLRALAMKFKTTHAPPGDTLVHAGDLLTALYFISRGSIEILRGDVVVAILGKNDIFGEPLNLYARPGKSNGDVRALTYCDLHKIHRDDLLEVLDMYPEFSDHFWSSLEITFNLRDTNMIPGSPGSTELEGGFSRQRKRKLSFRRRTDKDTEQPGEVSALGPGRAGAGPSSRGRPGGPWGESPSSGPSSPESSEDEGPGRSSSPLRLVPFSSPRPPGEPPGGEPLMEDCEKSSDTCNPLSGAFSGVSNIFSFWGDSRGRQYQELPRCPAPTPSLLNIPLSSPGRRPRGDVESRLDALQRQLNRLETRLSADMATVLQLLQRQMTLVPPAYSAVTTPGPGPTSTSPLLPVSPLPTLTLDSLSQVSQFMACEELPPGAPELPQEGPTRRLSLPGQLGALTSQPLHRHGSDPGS

Going from CN(C(=O)CSc1nc(-c2ccccc2)c(-c2ccccc2)o1)C1CCS(=O)(=O)C1 (stereo not shown) to CCNC(=O)C(Sc1ccccc1)c1ccccc1 (stereo not shown), the “hERG current change (%, negative = inhibition) at 10uM” value rises from -36.5% to 7.43%.

First: CCC(=O)Nc1cccc(NC(=O)c2ccc3c(c2)OCCO3)c1
Second: O=C(Cn1nc(-c2ccccc2F)ccc1=O)NCc1ccc2c(c1)OCO2
The “hERG current change (%, negative = inhibition) at 10uM” value of the first is higher: 2.17% for the first, -36.9% for the second.

Compared with Cc1c(NC(=S)NC(=O)c2ccc(Cl)cc2)c(=O)n(-c2ccccc2)n1C, O=C(/C=C/c1ccc(Cl)cc1)NC(=S)Nc1ccc(NC(=O)c2ccco2)cc1 is higher in “hERG current change (%, negative = inhibition) at 10uM” value: -17.2% for the first, 2.52% for the second.

Compared with C/C(=N/N=C/c1ccccc1O)c1ccccc1O, COc1ccccc1C(=O)NCC(=O)Nc1cccnc1 is lower in “hERG current change (%, negative = inhibition) at 10uM” value: 23.6% for the first, 20.5% for the second.

Going from Cc1ccc(S(=O)(=O)CCc2nc3ccccc3s2)cc1C to Cc1ccc(N(CC(O)Cn2nc(C)cc2C)S(=O)(=O)c2ccc3ccccc3c2)cc1 (stereo not shown), the “hERG current change (%, negative = inhibition) at 10uM” value rises from -8.3% to -3.22%.

Compared with N#CCCN(C(=O)COC(=O)CCC(=O)c1ccc(F)cc1)c1ccccc1, O=C(Cn1nc(C(=O)O)c2ccccc2c1=O)Nc1ccc(F)cc1 is higher in “hERG current change (%, negative = inhibition) at 10uM” value: -21.9% for the first, 8.44% for the second.

Compared with CCN(CC)S(=O)(=O)c1cccc(NC(=O)COC(=O)/C=C/c2ccco2)c1, C=CCn1cc(C(=O)NCc2ccc(Cl)cc2)c(=O)c2cc(S(=O)(=O)N(CC)CC)ccc21 is higher in “hERG current change (%, negative = inhibition) at 10uM” value: -36.2% for the first, -22.5% for the second.

First: O=C1CN(c2nc(-c3ccccc3)c3ccccc3n2)c2ccccc2N1
Second: Cc1ccc(N(CC(=O)Nc2ccccc2-c2ccccc2)S(=O)(=O)c2ccccc2)c(C)c1
The “hERG current change (%, negative = inhibition) at 10uM” value of the first is higher: 14.5% for the first, -5.82% for the second.

First: CCc1ccc(N2CC(C(=O)Nc3ccc(F)cc3)CC2=O)cc1 (stereo not shown)
Second: CCN(CC)c1ccc(NC(=O)C2CC(=O)N(Cc3ccccc3)C2)cc1 (stereo not shown)
The “hERG current change (%, negative = inhibition) at 10uM” value of the first is higher: 25.1% for the first, -6.71% for the second.

First: CC(C)/C=C/C(=O)N1CCC(N2CCC(C(=O)NCc3ccccn3)CC2)CC1
Second: CCN1CCN(C(=O)/C=C/c2ccc(C(C)C)cc2)CC1
The “hERG current change (%, negative = inhibition) at 10uM” value of the first is higher: 11.2% for the first, -35.2% for the second.

Compared with CCOC(=O)C1=C(O)/C(=C/c2cc(OC)c(OC)c(OC)c2)N=C1C, COc1ccc(Cc2nnc(N/N=C/c3ccc(N(C)C)cc3)[nH]c2=O)cc1OC is higher in “hERG current change (%, negative = inhibition) at 10uM” value: 6.39% for the first, 29.1% for the second.

Compared with O=C(N/N=C/c1c[nH]c2c1ccc1ccccc12)c1ccc([N+](=O)[O-])cc1, Cn1c(=O)c2cn(-c3cccc4ccccc34)cc2n(C)c1=O is lower in “hERG current change (%, negative = inhibition) at 10uM” value: 10.8% for the first, 6.99% for the second.

Compared with Cc1ccc(S(=O)(=O)N2CC(C)N(C(=O)N3CCOCC3)C2C)cc1 (stereo not shown), Cc1ccc(C(=O)N/C(=C/c2ccc(C(C)C)cc2)C(=O)NCCCN2CCOCC2)cc1 is lower in “hERG current change (%, negative = inhibition) at 10uM” value: 27.6% for the first, -65.8% for the second.

Going from O=C(O)c1ccc(CNCc2cccc(Oc3ccccc3)c2)cc1 to COc1ccc(C(=O)Nc2nnc(-c3ccccc3)s2)cc1, the “hERG current change (%, negative = inhibition) at 10uM” value rises from 4.98% to 11.7%.

First: COc1ccc2[nH]c(-c3ccc(C)cc3)cc(=O)c2c1
Second: Cc1ccc(-n2c(=O)[nH]c3ncccc3c2=O)cc1
The “hERG current change (%, negative = inhibition) at 10uM” value of the first is lower: 16.6% for the first, 30.2% for the second.

Compared with COc1ccccc1CC(=O)N1CCN(c2ccccc2)CC1, CC1(NC(=O)c2cccc(S(=O)(=O)N3CCN(c4ccccc4)CC3)c2)CCS(=O)(=O)C1 (stereo not shown) is lower in “hERG current change (%, negative = inhibition) at 10uM” value: 9.19% for the first, -23.1% for the second.

Compared with CC(C)(C)N1C(=O)[C@H]2[C@@H](c3ccc(Br)cc3)N3C(=O)N(c4ccccc4)C(=O)[C@@]3(Cc3ccccc3)[C@H]2C1=O, Cc1ccc(Cn2nnc3c(=O)n(CC(=O)c4ccccc4)cnc32)cc1 is lower in “hERG current change (%, negative = inhibition) at 10uM” value: -0.289% for the first, -0.591% for the second.

Compared with Cc1c(C(=O)N2CCCC2)sc(NC(=O)c2ccco2)c1C#N, NC(=O)C1CCN(C(=S)c2cccs2)CC1 is lower in “hERG current change (%, negative = inhibition) at 10uM” value: 10.4% for the first, 6.97% for the second.

Going from CCOC(=O)c1c(C)c(C(=O)NCc2cccnc2)c(C)n1C to Cc1cc(C)cc(N(C(=O)c2csnn2)C(C(=O)NC(C)(C)C)c2ccccn2)c1 (stereo not shown), the “hERG current change (%, negative = inhibition) at 10uM” value rises from -1.16% to 14.4%.

Going from Cc1cc(N2CCN(CC(O)C(F)(F)F)CC2)c2ccccc2n1 (stereo not shown) to CC(=O)Nc1ccc(Nc2cc(C)nc3ccccc23)cc1, the “hERG current change (%, negative = inhibition) at 10uM” value rises from -40.7% to -7.21%.

First: c1cc2c(cc1-c1[nH]ncc1CN1CC3C[C@@H]4CC1C[C@H](C3)C4)OCO2
Second: O=C(O)C1C2C=CC(C2)C1C(=O)N1CCN(CCO)CC1 (stereo not shown)
The “hERG current change (%, negative = inhibition) at 10uM” value of the first is lower: -44.3% for the first, 9.13% for the second.

Going from Cc1ccc(-c2nn(-c3ccccc3)cc2/C=C(\C#N)c2cccc(C#N)c2)o1 to O=[N+]([O-])c1cccc(CSc2ncnc3ccccc23)c1, the “hERG current change (%, negative = inhibition) at 10uM” value rises from 7.07% to 10.9%.

Going from CCC(=O)Nc1nnc(S(=O)(=O)N(C)c2cc(C)cc(C)c2)s1 to Cc1ccc2cc(CCNC(=O)C(C)(C)C)c(=O)[nH]c2c1, the “hERG current change (%, negative = inhibition) at 10uM” value falls from 13.3% to 7.16%.

Going from COc1ccc(-n2nc(C(=O)NCC(=O)NCC3CCCO3)c3ccccc3c2=O)c(OC)c1 (stereo not shown) to COCCCn1c(=O)c2ccccc2n(CC(=O)NC2CCCC2)c1=O, the “hERG current change (%, negative = inhibition) at 10uM” value rises from -9.52% to 21.2%.

First: Cc1cccc(NS(=O)(=O)c2ccc3[nH]c(=O)[nH]c3c2)c1C
Second: COc1cccc(OC)c1C(=O)Nc1ccc(S(=O)(=O)Nc2ncccn2)cc1
The “hERG current change (%, negative = inhibition) at 10uM” value of the first is higher: 13.7% for the first, 8.01% for the second.

Going from NS(=O)(=O)c1ccc(Nc2nc(-c3ccc(F)cc3)cs2)cc1 to c1cncc(-c2nnc(-c3ccco3)o2)c1, the “hERG current change (%, negative = inhibition) at 10uM” value falls from 13.4% to 1.52%.

First: CCN1CCN(C(=S)c2ccc(Cl)cc2)CC1
Second: CCOC(=O)C1CCN(C(=O)C(CCSC)NC(=O)COc2ccccc2)CC1 (stereo not shown)
The “hERG current change (%, negative = inhibition) at 10uM” value of the first is higher: -16.4% for the first, -37.3% for the second.

In the case of Cc1cc(Cl)c(O)c(-n2nc3ccccc3n2)c1, the “hERG current change (%, negative = inhibition) at 10uM” value is reported as -10.6%.
